# According to the supplement of paper PMC4466236:
# The full ranking holds about 33,000 sequences; the median of “E-score (dimensionless, -0.5 to 0.5)” is about -0.058, and the highest 2% start at about 0.35. The list shows a part of the results.
# Tested on: MvaT
# Test: PBM 8-mer E-score (mean of HK and ME arrays) (E-score (dimensionless, -0.5 to 0.5)); higher = stronger relative binding preference; most listed sequences are background and not binding sites
# How it was run: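 Full-length P. aeruginosa MvaT carrying an N-terminal glutathione S-transferase tag was tested by protein binding microarray following a previously described protocol. Two universal double-stranded 60-mer arrays, ME and HK, were used, each with a constant 25-mer primer region and a variable 35-mer region covering all 8-mers. The rank-based E-score is the mean of the two arrays, parsed with a custom script. Its range runs from -0.5 to 0.5 for each 8-mer.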
row,Sequence,PBM 8-mer E-score
1,CTGTTATA,0.359
2,AAACGGAG,-0.109
3,CAACTTAG,0.255
4,GATTGTAA,0.109
5,AGACGCGG,-0.254
6,GGGAATGA,-0.115
7,GAGGTGCC,-0.179
8,GCCACTTA,-0.161
9,TACGACTA,-0.049
10,ATCTATTG,0.082
11,CAGCATAC,0.0181
12,CCCCACTA,-0.172
13,CAGAGCTC,-0.193
14,GCGCGACA,-0.0568
15,GCACCAAC,-0.0941
16,ACGGGCTC,-0.154
17,AGGCACAA,-0.212
18,AGAGATCT,0.0324
19,GAACCGTC,-0.23
20,GAGTTACC,-0.00681
21,ACGGTTCA,0.00356
22,CAAATTGA,0.223
23,AAGCCTCT,-0.328
24,AAGGTGAG,-0.254
25,AAGCTGCA,-0.124

row,Sequence,PBM 8-mer E-score
1,TACGAACA,0.145
2,CGGAAGAA,-0.101
3,CTACTGCC,-0.181
4,GCCCTTGA,-0.286
5,CAACCTCA,-0.114
6,ACGCTAGT,-0.0816
7,CGGTGGCC,-0.181
8,AAAAACTG,0.0497
9,CGGCAGGA,-0.277
10,GAGGCTAA,-0.0265
11,CCCGCAAC,-0.00928
12,TAGATGAA,0.187
13,ATCGAACG,-0.051
14,AAATATGA,0.241
15,ATGACGCC,-0.301
16,ACCTACCT,-0.162
17,GGTGTCGA,-0.173
18,CTGAGGAC,-0.192
19,ACATCTGC,-0.0866
20,GATCGTCC,-0.303
21,ACTACGTC,-0.181
22,CTTGCCCC,-0.16
23,ATATCTTC,0.283
24,GAATGGGA,-0.195
25,CATAATCC,0.0563

row,Sequence,PBM 8-mer E-score
1,AGAACAGG,-0.0799
2,TTGTTAAA,0.346
3,GCGCAGTA,-0.0668
4,AAGCACCC,-0.193
5,CACGGTTC,-0.16
6,CCGAATTA,0.191
7,GAGTGTAA,0.232
8,AGGGAACC,-0.296
9,CGATCCTA,-0.185
10,GAGCTCGC,-0.24
11,ACAACGCG,-0.0832
12,AAGGCGGC,-0.157
13,AGGGCAAT,-0.0363
14,AAGGAAAA,0.0771
15,CCAGTATC,-0.091
16,CTATGCGA,-0.129
17,CCTTGAGA,-0.0961
18,AACTTAAT,0.381
19,ACATAGTA,0.278
20,AACATATG,0.254
21,AGGGTAAA,0.134
22,CCAATCAA,0.00231
23,CCCGTGCG,-0.273
24,GGCTAGCA,-0.0963
25,ACCAGATC,-0.169

row,Sequence,PBM 8-mer E-score
1,CATGACCA,-0.0462
2,ATAATCAT,0.266
3,AGAGGAAA,-0.146
4,CTGTAGAA,0.0708
5,AACTCCGA,0.0444
6,ACTAACAG,0.0841
7,CCAATTAA,0.306
8,AAAAACGG,0.0301
9,AGTGTTAA,0.175
10,GAGTCAGA,-0.134
11,CCGTTATA,0.308
12,ACACAGAG,-0.0634
13,ACTGAGCC,-0.174
14,AGGACAAT,0.0949
15,ATGCATTA,0.241
16,GATAGCAA,0.0375
17,AAAACAGT,0.242
18,ACAGCCCG,-0.169
19,ATAGTCTC,0.0377
20,ACTCAGAC,-0.142
21,AGTACGGA,-0.0816
22,AAAGCTTT,0.1
23,AGTCTGAA,-0.153
24,ACGCCTTG,-0.161
25,AGAGAGAA,-0.213

row,Sequence,PBM 8-mer E-score
1,AAAAGGCC,-0.0414
2,CTGATGGA,-0.141
3,AATCTCTG,-0.0793
4,CAATAAAA,0.286
5,CCGGCTGC,-0.309
6,CACAACGA,0.0491
7,CAAGGTGG,-0.121
8,CGGTTTCA,-0.118
9,CCTTGTGA,-0.148
10,CGCTGCCC,-0.265
11,AAATCGCA,-0.0304
12,AGCTAAGG,-0.212
13,ACCACCAC,-0.0821
14,AGAAATTC,0.0242
15,AATTATTC,0.352
16,CGGGGTAG,-0.19
17,CAGTGCCG,-0.171
18,GCAGATTA,0.108
19,ATAACTGG,0.213
20,GAAGGAGA,-0.255
21,AAATCCAA,0.113
22,CAGAGAGA,-0.148
23,GGAGAACA,0.0627
24,CAAACCTG,0.021
25,CTAGCAAG,-0.171

row,Sequence,PBM 8-mer E-score
1,ACAATCCG,0.00493
2,GGTAAAAC,-0.00823
3,CACGTATC,-0.0917
4,CAGGGTCA,-0.204
5,ATGGAGGA,-0.25
6,AGGGCGCA,-0.172
7,CTGAGCGA,-0.135
8,GAGGCCTA,-0.23
9,ATTGCAAT,0.27
10,ATCGACAA,0.105
11,AGGATGGA,-0.127
12,AGTACCCC,-0.152
13,ATATTAGG,0.309
14,GGATAACA,0.226
15,ACGTTCAA,-0.00603
16,AGCATGTC,-0.109
17,CCCTAGAG,-0.225
18,GCCTATCC,-0.15
19,ATCAAAGA,-0.0471
20,GATTCGGC,-0.177
21,TAACGACA,0.158
22,GTAGCTCA,-0.186
23,AATCGAAC,0.176
24,AGCCTGCG,-0.264
25,GTCCCCAC,-0.299

row,Sequence,PBM 8-mer E-score
1,GAGTGGTA,0.0781
2,ATGTCAAT,0.0951
3,ATCCCATC,-0.0397
4,ATTTGGGA,0.113
5,ACGTGCCT,-0.202
6,GTTACAAC,0.171
7,ATCTTCGG,-0.00976
8,AAACTAAT,0.335
9,CGGACCCC,-0.254
10,ACATCAGC,-0.0441
11,GACTAGAA,0.173
12,ATCGGCGG,-0.201
13,CTTGGGTA,-0.118
14,GTATCAGA,0.0638
15,GGACTGCA,-0.0995
16,CAGTTGTC,-0.0191
17,TATAGGAA,0.0701
18,GACTCACC,-0.19
19,GCCACTCA,-0.136
20,CTTCGAAC,0.0106
21,AATAACAC,0.331
22,GACCAAGC,-0.244
23,AAACCCAG,0.0361
24,ACATCAAC,0.013
25,CCACCAAG,-0.139

row,Sequence,PBM 8-mer E-score
1,ATAGCCAG,-0.194
2,GAAAAGGA,-0.0534
3,GGACAAAC,0.017
4,ATCAATGC,-0.0304
5,AACATCCA,0.201
6,TCCTGCCA,-0.192
7,GAGCTAAA,-0.16
8,AAATTGAT,0.253
9,ATTTGTGA,0.131
10,CCTGATCG,-0.219
11,ACGGGTCA,-0.315
12,ATGGAAAA,0.116
13,ACCTCCAA,-0.114
14,ACAACTGC,0.00934
15,AAATACAT,0.33
16,ATGATCTG,-0.0734
17,AGGGACCT,-0.25
18,CCGGGAGC,-0.164
19,CAACATCC,0.0934
20,CGACAAGC,-0.242
21,CGCTGTGC,-0.129
22,CAAACCAC,0.0416
23,ACATCAAT,0.155
24,GAAGTTAA,0.317
25,CCAAAGTA,0.0463

row,Sequence,PBM 8-mer E-score
1,AGGCTGAG,-0.218
2,ATTTGACG,0.0587
3,GAACCCAA,-0.023
4,ATCAGATG,-0.0112
5,CCTCCCTC,-0.212
6,GCAACTCC,-0.0294
7,CGTGATAC,-0.076
8,AATGCGGC,-0.0157
9,GGATCTCA,-0.294
10,GTATGGGA,-0.132
11,ACACTCGC,-0.00864
12,CGCTAAGC,-0.208
13,AGGACTGA,-0.22
14,AGTCATTA,0.14
15,ACAGAGAC,-0.141
16,GAGTTGGA,-0.079
17,GACATCCA,-0.0444
18,GCCAATCA,0.0332
19,GAGGCAGC,-0.282
